This is one part of the list. Cut-off read from the data, not from the text of the source: active = 3.2 or more and inactive = the rest. Only a few entries rise above the background.
B1: ALDH3A1_Y272_E270A (peptide)
chain: SLKAFYGEDAK
B2: ALDH3A1_Y305_G309E (peptide)
chain: GQKVAYGGTED
B3: ALDH3B2_Y362 (peptide)
chain: LKEIHYPPYTD
B4: ALDH3B2_Y362_H361R_YF (peptide)
chain: LKEIRYPPFTD
B5: ALDH3B2_Y362_YF (peptide)
chain: LKEIHYPPFTD
B6: ALDH3B2_Y365 (peptide)
chain: IHYPPYTDWNQ
B7: ALDH3B2_Y365_H361R (peptide)
chain: IRYPPYTDWNQ
B8: ALDH3B2_Y365_H361R_YF (peptide)
chain: IRFPPYTDWNQ
B9: ALDH3B2_Y365_YF (peptide)
chain: IHFPPYTDWNQ
B10: ALDH5A1_Y175 (peptide)
chain: EARRVYGDIIH
B11: ALDH5A1_Y175_G176R (peptide)
chain: EARRVYRDIIH
B12: ALDH5A1_Y175_H180Y (peptide)
chain: EARRVYGDIIY
B13: ALDH5A1_Y175_H180Y_YF (peptide)
chain: EARRVYGDIIF
B14: ALDOA_Y138 (peptide)
chain: ERCAQYKKDGA
B15: ALDOA_Y204 (peptide)
chain: LKRCQYVTEKV
B16: ALDOA_Y204_E207K (peptide)
chain: LKRCQYVTKKV
B17: ALDOA_Y343 (peptide)
chain: ACQGKYTPSGQ
B18: ALDOA_Y343_C339Y (peptide)
chain: AYQGKYTPSGQ

These binders were tested against SHP2 C-SH2 domain E139D (assay: enrichment score (SH2-bound / input frequency) (ratio); bacterial display of known human phosphotyrosine sites (pTyr-Var adds point mutants) read by sequencing; higher = stronger binding; tyrosines were phosphorylated by kinases first). Settings: peptide library: pTyr-Var.
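Note: displayed peptides selected on beads carrying the immobilized SH2 domain, with library peptides lacking any tyrosine serving as negative controls.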

Enrichment score, inactive:
B1 0.734
B2 0.498
B3 0.829
B4 1.65
B5 1.02
B6 1.26
B7 1.01
B8 1.42
B9 1.19
B10 0.573
B11 0.926
B12 0.86
B13 0.871
B14 0.797
B15 0.606
B16 0.455
B17 0.837
B18 0.607

What follows are binders tested against SHP2 C-SH2 domain wild-type in the same assay as above. Settings: peptide library: pTyr-Var.

Enrichment score, inactive:
B1 0.577
B2 0.697
B3 0.703
B4 1.01
B5 0.975
B6 0.92
B7 0.749
B8 0.987
B9 1.05
B10 0.723
B11 0.68
B12 0.759
B13 1.08
B14 0.721
B15 0.829
B16 0.365
B17 0.689
B18 0.822

These binders were tested against SHP2 N-SH2 domain L43F in the same assay as above. Settings: peptide library: pTyr-Var.

Enrichment score, inactive:
B1 0.893
B2 0.556
B3 0.651
B4 1.26
B5 1.04
B6 0.969
B7 0.921
B8 1.06
B9 1.34
B10 0.725
B11 0.667
B12 0.748
B13 0.849
B14 0.766
B15 0.86
B16 0.492
B17 0.614
B18 0.478

These binders were tested against SHP2 N-SH2 domain T42A in the same assay as above. Settings: peptide library: pTyr-Var.

Enrichment score, inactive:
B1 0.608
B2 0.538
B3 0.688
B4 0.974
B5 0.758
B6 0.978
B7 0.756
B8 1.01
B9 1.22
B10 0.625
B11 0.717
B12 0.818
B13 1.13
B14 0.713
B15 0.615
B16 0.519
B17 0.574
B18 0.531

These binders were tested against SHP2 N-SH2 domain T52S in the same assay as above. Settings: peptide library: pTyr-Var.

Enrichment score, inactive:
B1 0.671
B2 0.602
B3 0.879
B4 1.2
B5 0.933
B6 0.845
B7 0.805
B8 1.39
B9 1.33
B10 0.899
B11 0.866
B12 0.87
B13 1
B14 0.564
B15 0.63
B16 0.375
B17 0.686
B18 0.692

Each binder was assayed against SHP2 N-SH2 domain wild-type in the same assay as above. Settings: peptide library: pTyr-Var.

Enrichment score, inactive:
B1 0.806
B2 0.573
B3 0.66
B4 1.62
B5 0.862
B6 0.911
B7 0.714
B8 1.14
B9 1.04
B10 0.809
B11 0.726
B12 0.807
B13 0.972
B14 0.676
B15 0.695
B16 0.49
B17 0.759
B18 0.667

Reference: the supplement of paper PMC10369915
